According to PubChem BioAssay AID686979 (National Center for Advancing Translational Sciences (NCATS), 2013):
Where “and” joins values, the source holds several entries; their conditions need not be identical. Equal entries are not always repeated. Out of some 420,000 compounds screened, about 50,000 (12%) were called active. The inconclusive results got no clear call from the source; some entries with a clear call stand among them for comparison. Calls come from the whole dose curve; as a rule, active = well fitted inhibition curve with a large enough effect; inconclusive = small, poorly fitted or top-dose-only effect; inactive = flat fitted curve, though single readings scatter. Potencies beside an inconclusive call are fits to weak or partial responses and may not hold up.

Assay: qHTS for Inhibitors of human tyrosyl-DNA phosphodiesterase 1 (TDP1): qHTS in cells in presence of CPT; note: nearly all actives have a fitted effect of over 55% in size
Conditions: chicken DT40 Tdp1-/-;hTDP1 cells + 20 nM CPT, ATP luminescence, 48 h; activity change, negative = growth inhibition: at 46.2 µM (top of the series) unless noted
Summary of the method: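 Chicken DT40 Tdp1-/- cells stably complemented with human TDP1 were seeded at 400 cells/well in medium containing 20 nM camptothecin, exposed to pin-transferred compounds, and grown at 37 °C for at least 48 hr. Viability was read as ATP luminescence.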
% is set by controls: 0 for no effect and ±100 for the full control effect; potency is the fitted concentration of half-maximal effect; tags give direction and shape of the fitted curve.

SMILES	Potency	activity change, negative = growth inhibition
Nc1c(C(=O)NC2CC2)c2nc3ccccc3nc2n1-c1ccc2c(c1)OCO2	inconclusive: 18.4 µM [inhibitor, single point]	–
O=C(NCCN1CCN(c2ccccc2)CC1)C1CCN(S(=O)(=O)c2cccc3nsnc23)CC1	inconclusive: 23.1 µM [inhibitor, single point]	–
CC(Sc1cn(CCNC(=O)c2ccccc2F)c2ccccc12)c1ccccc1 (stereo unspecified)	inconclusive: 18.4 µM [inhibitor, single point]	–
CCN(CCCNC(=O)CSc1cc(=O)n(CC)c2ccccc12)c1cccc(C)c1	active: 20.6 µM	–
COC(=O)c1c(C)[nH]c(C(=O)C(C)OC(=O)c2c(C)noc2C)c1C (stereo unspecified)	inconclusive: 16.4 µM [inhibitor, single point]	–
CCOC(=O)/C(C#N)=C1\Nc2ccccc2N=C1N(CC(C)C)CC(C)C	inconclusive: 29.1 µM [inhibitor, single point]	–
Cc1ccc(S(=O)(=O)N(C)C[C@@H]2Oc3ccc(NC(=O)Nc4cccc5ccccc45)cc3C(=O)N([C@H](C)CO)C[C@H]2C)cc1	inconclusive: 25.9 µM [inhibitor, single point]	–
O=C(NCc1cccnc1)/C(=C\c1ccc(-c2cccc(Cl)c2)o1)S(=O)(=O)c1ccccc1	active: 4.61 µM	–
C#CCOCCOCCOCCNc1nc(N2CCN(C(=O)[C@H]([C@@H](C)CC)n3cc(CCC(=O)O)nn3)CC2)nc(N2CCN(C(=O)[C@H](CCCCN)n3cc(CC(C)O)nn3)CC2)n1 (stereo partly specified)	inactive	–
CS(=O)(=O)c1ccc2sc(NC(=O)c3cc4ccccc4o3)nc2c1	inconclusive: 29.1 µM [inhibitor, single point]	–
CC1Oc2ccccc2C=C1/C=N/NC(=O)c1ccncc1 (stereo unspecified)	inconclusive: 29.1 µM [inhibitor, single point]	–
COc1cccc(-c2nccc(NC3CCNCC3)n2)c1	inconclusive: 20.6 µM [inhibitor, single point]	–
CC(Oc1cccc(NC(=O)c2cccs2)c1)C(=O)c1ccccc1 (stereo unspecified)	inactive	–
CCC(C)c1ccccc1NC(=O)c1cc(C)no1 (stereo unspecified)	–	inconclusive: -30% [inhibitor]
CCOc1ccc(-c2nnn(CC(=O)NCc3ccc(OC)cc3)n2)cc1OCC	inconclusive: 32.6 µM [inhibitor, single point]	–
COC(=O)c1ccc(NC(=O)CSc2ncc3c(n2)-c2cc(Cl)ccc2N(Cc2ccccc2)S3(=O)=O)cc1	inconclusive: 20.6 µM [inhibitor, single point]	–
CCOc1ccc(CCNC(=O)c2ccc(CS(=O)Cc3cccc(Cl)c3)o2)cc1 (stereo unspecified)	inconclusive: 25.9 µM [inhibitor, single point] and inconclusive: 23.1 µM [inhibitor, single point]	–
COc1ccc(C)cc1NC(=O)Cn1c(=O)ccc2cc(S(=O)(=O)N3CCC(C)CC3)ccc21	inconclusive: 18.4 µM [inhibitor, single point]	–
COc1ccc(NC(=O)c2c(NCc3sccc3C)sc3c2CCCCC3)c(OC)c1	active: 3.26 µM	–
O=C(c1cc(-c2cccs2)nc2ccccc12)N1CCN(S(=O)(=O)c2ccccc2)CC1	inconclusive: 18.4 µM [inhibitor, single point]	–
CC(C)c1ccc(NC2CCCN(C(=O)c3ccc(N4CCOCC4)cc3)C2)cc1 (stereo unspecified)	inconclusive: 20.6 µM [inhibitor, partial curve]	–
O=C(O)C(S)[C@@H](S)C(=O)O (stereo partly specified)	inactive	–

SMILES	Potency	activity change, negative = growth inhibition
O=C(NCCc1ccc2c(c1)OCCO2)c1ccc(F)cc1	inconclusive: 23.1 µM [inhibitor, partial curve]	–
O=S(=O)(c1ccc(F)cc1)N(Cc1nc(-c2ccc(Cl)cc2)no1)C1CCCCC1	inconclusive: 29.1 µM [inhibitor, single point]	–
COc1ccc(-c2cc(C(=O)NCCN3CCOCC3)c3ccccc3n2)cc1OC	inactive	–
O=C(COC(=O)C12CC3CC(CC(O)(C3)C1)C2)Nc1cccc(Br)c1	inconclusive: 23.1 µM [inhibitor, single point]	–
CN(C(=O)c1cc2n(n1)C(C(F)(F)F)CC(c1ccco1)N2)c1ccccc1 (stereo unspecified)	–	inconclusive: -33.3% [inhibitor]
Cn1cccc1CC(=O)NNC(=S)Nc1ccc(F)cc1	inactive	–
CC(C)C1OC2c3cccc4cccc(c34)C2N1c1ccccc1 (stereo unspecified)	inactive	–
O=C1CSC(=S)N1N=Cc1ccc(Cl)cc1Cl	inconclusive: 29.1 µM [inhibitor, single point]	–
COc1cc(OC)cc(C(=O)NCC2CCCN(C(=O)c3oc(C)cc3C)C2)c1 (stereo unspecified)	inconclusive: 23.1 µM [inhibitor, single point]	–
O=C(CCS(=O)(=O)c1cc(Br)cc2c1N(C(=O)C1CC1)CC2)NCc1ccccc1Cl	inactive	–
O=C(COc1cc([N+](=O)[O-])cc2cccnc12)NCCC1=CCCCC1	inconclusive: 25.9 µM [inhibitor, single point]	–
CCOC(=O)c1c(NC(=O)C2COc3ccccc3O2)sc2c1CC(C)(C)NC2(C)C (stereo unspecified)	active: 13 µM	–
O=c1ccn(Cc2ccccc2)c2ccccc12	active: 11.6 µM	–
Cn1c(=O)[nH]c(=O)c2c1nc(N1CCN(CCO)CC1)n2Cc1ccccc1	inactive	–
CCN(C(=O)c1ccc2c(c1)OCO2)C12CC3CC(CC(C3)C1)C2	inconclusive: 18.4 µM [inhibitor, single point]	–
CCCCCCCCC(=O)N/N=C/c1ccccn1	active: 18.4 µM	–
COc1ccc(-c2sc(Nc3ccccc3)n[n+]2C)c(C)c1C	active: 20.6 µM	–
CCN(CC(=O)NCc1ccc(Cl)cc1)C(=O)c1cc(S(=O)(=O)NCc2ccccc2)ccc1C	inconclusive: 16.4 µM [inhibitor, partial curve, poor fit]	–
CCCN(CCC)S(=O)(=O)c1ccc(C(=O)Nc2nnc(COC)o2)cc1	inconclusive: 23.1 µM [inhibitor, single point]	–
COc1cc(C(=S)N2CCOCC2)cc(OC)c1OC(=O)c1ccc(C)cc1	inactive	–
Cc1ccc(NC(=O)CCC(=O)N2CCSc3ccccc32)cc1Cl	active: 16.4 µM	–
COC(=O)C(C)n1nnc2sc(-c3ccccc3)cc2c1=O (stereo unspecified)	inconclusive: 14.6 µM [inhibitor, partial curve] and inconclusive: 23.1 µM [inhibitor, single point]	–

SMILES	Potency	activity change, negative = growth inhibition
CCC(C(=O)Nc1cc(F)ccc1F)n1nc(-c2cc(C)ccc2C)ccc1=O (stereo unspecified)	inconclusive: 29.1 µM [inhibitor, single point]	–
CN(CC(=O)Nc1ccc(Cl)c(C(F)(F)F)c1)S(=O)(=O)c1cnc[nH]1	active: 14.6 µM	–
CCOC(=O)N1CCc2c(sc3c2c(=O)n(Cc2ccccc2)c(=O)n3CC(=O)Nc2ccc(C)c(C)c2)C1	inactive	–
C[C@@H](C(=O)NCc1ccccn1)[C@H]1C[C@]1(C)[C@H](NC(=O)OCc1ccccc1)c1ccccc1	active: 23.1 µM	–
O=C(C[C@@H]1C[C@H]2c3cc(NC(=O)c4cccnc4)ccc3O[C@H]2[C@H](CO)O1)NCc1ccc(Oc2ccccc2)cc1	active: 13 µM	–
O=C(O/N=C1/CCCc2occc21)c1ccc(F)cc1	inconclusive: 29.1 µM [inhibitor, single point]	–
COc1ccc2c(c1)c(=O)c(S(=O)(=O)c1ccc(C)cc1)cn2Cc1ccccc1C	inconclusive: 14.6 µM [inhibitor, partial curve]	–
CCN1CCN(C(C(=O)NC2CCCCC2)c2ccc(Cl)cc2)CC1 (stereo unspecified)	inconclusive: 23.1 µM [inhibitor, partial curve]	–
Cc1nc2cc(C(=O)OCC(=O)NC(C)C(C)C)ccc2n1-c1ccccc1 (stereo unspecified)	inactive	–
COc1cc(OC)c(OC)cc1/C=N/NC(=S)NCCN1CCOCC1	active: 18.4 µM	–
Oc1c(Cl)cc(Cl)c(Cl)c1Cc1c(O)c(Cl)cc(Cl)c1Cl	active: 4.73 µM and active: 23.1 µM and active: 3.26 µM	–
Cc1ccc(C)c(Cn2nnc3c(=O)[nH]c(C4CCN(C(=O)c5ccco5)CC4)nc32)c1	active: 20.6 µM	–
O=C(CSc1nnc(CCCN2C(=O)c3cccc4cccc(c34)C2=O)n1-c1ccccc1)NCCCO	inconclusive: 29.1 µM [inhibitor, single point]	–
CC1=C(C(=O)OCc2ccccc2)C(c2ccccc2-c2ccccc2)NC(=O)N1CCCCCC(=O)O (stereo unspecified)	inconclusive: 29.1 µM [inhibitor, single point]	–
COCC(=O)OC/C(O)=C(\C#N)c1nc2ccccc2[nH]1	active: 2.91 µM	–
COC(=O)C1C2CC3c4[nH]c5cc(OC)ccc5c4CCN3CC2CC(OC(=O)CC(C)=O)C1OC (stereo unspecified)	inconclusive: 29.1 µM [inhibitor, single point]	–
O=c1[nH]c(C2CCN(S(=O)(=O)c3ccccc3F)CC2)nc2c1nnn2Cc1ccc2c(c1)OCCO2	inconclusive: 14.6 µM [inhibitor, single point]	–
Cc1ccc(NC(=O)CN(C)C(=O)C2COc3ccccc3O2)cc1 (stereo unspecified)	inconclusive: 16.4 µM [inhibitor, single point]	–
Cc1ccc(S(=O)(=O)NCCCn2ccnc2)cc1C(=O)NC(C)C	inactive	–
Cc1c(Cl)cccc1NC(=O)Nc1nnc(N(C)Cc2ccccc2)s1	inconclusive: 20.6 µM [inhibitor, single point]	–
O=C(c1ccc2c(=O)n(Cc3ccco3)c(=S)[nH]c2c1)N1CCN(Cc2ccc3c(c2)OCO3)CC1	active: 14.1 µM	–
CC(C)CNC(=O)c1ccc(NC(=O)c2ccccc2[N+](=O)[O-])cc1	inactive	–
